The record followed here is the supplement of paper PMC8728848.

Some of the results follow.

What all share (experiment): glycan array binding signal (z-score within array); higher = stronger binding
Conditions in all cases: glycan notation: IUPAC condensed, linker removed

Assay [1] deals with Gal(b1-4)GlcNAc(b1-3)Gal(b1-3)GlcNAc. In a few lines: (§1)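 Arrays were curated from the Consortium for Functional Glycomics database, 3228 in total, and kept only where the protein sequence was available. Binding is expressed as a within-array Z-score. This score was averaged across arrays of the same protein sequence at different concentrations or buffers and across linkers, and negative values can be read as non-binding.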

For assay [2], the target named is Gal(b1-4)GlcNAc(b1-3)Gal(b1-4)Glc. Put shortly: as §1
In assay [3] the target is Gal(b1-4)GlcNAc(b1-3)Gal(b1-4)GlcNAc. In a few lines: as §1
For assay [4], the target named is Gal(b1-4)GlcNAc(b1-3)Gal(b1-4)GlcNAc(b1-2)Man(a1-3)[Gal(b1-4)GlcNAc(b1-3)Gal(b1-4)GlcNAc(b1-2)Man(a1-6)]Man(b1-4)GlcNAc(b1-4)GlcNAc. Put shortly: as §1
Assay [5] concerns the target Gal(b1-4)GlcNAc(b1-3)Gal(b1-4)GlcNAc(b1-2)Man(a1-3)[Gal(b1-4)GlcNAc(b1-3)Gal(b1-4)GlcNAc(b1-2)Man(a1-6)]Man(b1-4)GlcNAc(b1-4)[Fuc(a1-6)]GlcNAc. In a few lines: as §1
Assay [6] concerns the target Gal(b1-4)GlcNAc(b1-3)Gal(b1-4)GlcNAc(b1-2)[Gal(b1-4)GlcNAc(b1-3)Gal(b1-4)GlcNAc(b1-6)]Man(a1-6)[Gal(b1-4)GlcNAc(b1-3)Gal(b1-4)GlcNAc(b1-2)Man(a1-3)]Man(b1-4)GlcNAc(b1-4)GlcNAc. In a few lines: as §1
Assay [7] has as its target Gal(b1-4)GlcNAc(b1-3)Gal(b1-4)GlcNAc(b1-2)[Gal(b1-4)GlcNAc(b1-3)Gal(b1-4)GlcNAc(b1-6)]Man(a1-6)[Gal(b1-4)GlcNAc(b1-3)Gal(b1-4)GlcNAc(b1-2)Man(a1-3)]Man(b1-4)GlcNAc(b1-4)[Fuc(a1-6)]GlcNAc. In a few lines:
as §1

The target in assay [8] is Gal(b1-4)GlcNAc(b1-3)Gal(b1-4)GlcNAc(b1-3)Gal(b1-4)GlcNAc. In a few lines:
as §1

Assay [9] deals with Gal(b1-4)GlcNAc(b1-3)Gal(b1-4)GlcNAc(b1-3)Gal(b1-4)GlcNAc(b1-2)Man(a1-3)[Gal(b1-4)GlcNAc(b1-3)Gal(b1-4)GlcNAc(b1-3)Gal(b1-4)GlcNAc(b1-2)Man(a1-6)]Man(b1-4)GlcNAc(b1-4)GlcNAc. In a few lines: as §1
The target of assay [10] is Gal(b1-4)GlcNAc(b1-3)Gal(b1-4)GlcNAc(b1-3)Gal(b1-4)GlcNAc(b1-2)Man(a1-3)[Gal(b1-4)GlcNAc(b1-3)Gal(b1-4)GlcNAc(b1-3)Gal(b1-4)GlcNAc(b1-2)Man(a1-6)]Man(b1-4)GlcNAc(b1-4)[Fuc(a1-6)]GlcNAc. Put shortly:
as §1

Assay [11] concerns the target Gal(b1-4)GlcNAc(b1-3)Gal(b1-4)GlcNAc(b1-3)Gal(b1-4)GlcNAc(b1-2)[Gal(b1-4)GlcNAc(b1-3)Gal(b1-4)GlcNAc(b1-3)Gal(b1-4)GlcNAc(b1-6)]Man(a1-6)[Gal(b1-4)GlcNAc(b1-3)Gal(b1-4)GlcNAc(b1-3)Gal(b1-4)GlcNAc(b1-2)Man(a1-3)]Man(b1-4)GlcNAc(b1-4)[Fuc(a1-6)]GlcNAc. Put shortly:
as §1

Assay [12] deals with Gal(b1-4)GlcNAc(b1-3)Gal(b1-4)GlcNAc(b1-3)Gal(b1-4)GlcNAc(b1-3)Gal(b1-4)GlcNAc(b1-2)Man(a1-3)[Gal(b1-4)GlcNAc(b1-3)Gal(b1-4)GlcNAc(b1-3)Gal(b1-4)GlcNAc(b1-3)Gal(b1-4)GlcNAc(b1-2)Man(a1-6)]Man(b1-4)GlcNAc(b1-4)GlcNAc. Put shortly: as §1
Assay [13] deals with Gal(b1-4)GlcNAc(b1-3)Gal(b1-4)GlcNAc(b1-3)Gal(b1-4)GlcNAc(b1-3)Gal(b1-4)GlcNAc(b1-2)Man(a1-3)[Gal(b1-4)GlcNAc(b1-3)Gal(b1-4)GlcNAc(b1-3)Gal(b1-4)GlcNAc(b1-3)Gal(b1-4)GlcNAc(b1-2)Man(a1-6)]Man(b1-4)GlcNAc(b1-4)[Fuc(a1-6)]GlcNAc. Put shortly: as §1
In assay [14] the target is Gal(b1-4)GlcNAc(b1-3)Gal(b1-4)GlcNAc(b1-3)Gal(b1-4)GlcNAc(b1-3)Gal(b1-4)GlcNAc(b1-2)[Gal(b1-4)GlcNAc(b1-3)Gal(b1-4)GlcNAc(b1-3)Gal(b1-4)GlcNAc(b1-3)Gal(b1-4)GlcNAc(b1-6)]Man(a1-6)[Gal(b1-4)GlcNAc(b1-3)Gal(b1-4)GlcNAc(b1-3)Gal(b1-4)GlcNAc(b1-3)Gal(b1-4)GlcNAc(b1-2)Man(a1-3)]Man(b1-4)GlcNAc(b1-4)[Fuc(a1-6)]GlcNAc. Put shortly:
as §1

Assay [15] addresses Gal(b1-4)GlcNAc(b1-3)Gal(b1-4)GlcNAc(b1-3)Gal(b1-4)GlcNAc(b1-3)Gal(b1-4)GlcNAc(b1-3)Gal(b1-4)GlcNAc(b1-2)Man(a1-3)[Gal(b1-4)GlcNAc(b1-3)Gal(b1-4)GlcNAc(b1-3)Gal(b1-4)GlcNAc(b1-3)Gal(b1-4)GlcNAc(b1-3)Gal(b1-4)GlcNAc(b1-2)Man(a1-6)]Man(b1-4)GlcNAc(b1-4)GlcNAc. In a few lines:
as §1

Assay [16] addresses Gal(b1-4)GlcNAc(b1-3)Gal(b1-4)GlcNAc(b1-3)Gal(b1-4)GlcNAc(b1-3)Gal(b1-4)GlcNAc(b1-3)Gal(b1-4)GlcNAc(b1-2)Man(a1-3)[Gal(b1-4)GlcNAc(b1-3)Gal(b1-4)GlcNAc(b1-3)Gal(b1-4)GlcNAc(b1-3)Gal(b1-4)GlcNAc(b1-3)Gal(b1-4)GlcNAc(b1-2)Man(a1-6)]Man(b1-4)GlcNAc(b1-4)[Fuc(a1-6)]GlcNAc. In a few lines: as §1
Assay [17] concerns the target Gal(b1-4)GlcNAc(b1-3)Gal(b1-4)GlcNAc(b1-3)Gal(b1-4)GlcNAc(b1-3)Gal(b1-4)GlcNAc(b1-3)Gal(b1-4)GlcNAc(b1-2)[Gal(b1-4)GlcNAc(b1-3)Gal(b1-4)GlcNAc(b1-3)Gal(b1-4)GlcNAc(b1-3)Gal(b1-4)GlcNAc(b1-3)Gal(b1-4)GlcNAc(b1-6)]Man(a1-6)[Gal(b1-4)GlcNAc(b1-3)Gal(b1-4)GlcNAc(b1-3)Gal(b1-4)GlcNAc(b1-3)Gal(b1-4)GlcNAc(b1-3)Gal(b1-4)GlcNAc(b1-2)Man(a1-3)]Man(b1-4)GlcNAc(b1-4)[Fuc(a1-6)]GlcNAc. Put shortly: as §1

In assay [18] the target is Gal(b1-4)GlcNAc(b1-3)Gal(b1-4)GlcNAc(b1-3)Gal(b1-4)GlcNAc(b1-3)Gal(b1-4)GlcNAc(b1-3)Gal(b1-4)GlcNAc(b1-3)Gal(b1-4)GlcNAc(b1-2)Man(a1-3)[Gal(b1-4)GlcNAc(b1-3)Gal(b1-4)GlcNAc(b1-3)Gal(b1-4)GlcNAc(b1-3)Gal(b1-4)GlcNAc(b1-3)Gal(b1-4)GlcNAc(b1-3)Gal(b1-4)GlcNAc(b1-2)Man(a1-6)]Man(b1-4)GlcNAc(b1-4)GlcNAc. In a few lines:
as §1

The target of assay [19] is Gal(b1-4)GlcNAc(b1-3)Gal(b1-4)GlcNAc(b1-3)GalNAc. In a few lines: as §1
The target of assay [20] is Gal(b1-4)GlcNAc(b1-3)Gal(b1-4)GlcNAc(b1-3)[Gal(b1-4)GlcNAc(b1-3)Gal(b1-4)GlcNAc(b1-6)]GalNAc. Put shortly: as §1
In assay [21] the target is Gal(b1-4)GlcNAc(b1-3)Gal(b1-4)GlcNAc(b1-6)[Gal(b1-3)]GalNAc. In a few lines:
as §1

Assay [22] concerns the target Gal(b1-4)GlcNAc(b1-3)Gal(b1-4)[Fuc(a1-3)GlcNAc(b1-6)]Gal(b1-4)Glc. In a few lines:
as §1

For assay [23], the target named is Gal(b1-4)GlcNAc(b1-3)Gal(b1-4)[Fuc(a1-3)]GlcNAc(b1-3)Gal(b1-4)[Fuc(a1-3)]GlcNAc. Put shortly: as §1

B1: Gal 1 (Mus musculus), P16045 (protein)
chain: MACGLVASNLNLKPGECLKVRGEVASDAKSFVLNLGKDSNNLCLHFNPRFNAHGDANTIVCNTKEDGTWGTEHREPAFPFQPGSITEVCITFDQADLTIKLPDGHEFKFPNRLNMEAINYMAADGDFKIKCVAFE
In the case of B1, the “glycan array binding signal (z-score)” value was -0.313 in [1]; -0.109 in [2]; 0.091 in [3]; 2.09 in assay [4]; 1.99 in assay [5]; 1.22 in [6]. In addition, the “glycan array binding signal (z-score)” value is 3.02 in assay [7]; -0.173 in [8]; 2.85 in assay [9]; 2.53 in assay [10]; 3.89 in assay [11]; 2.54 in assay [12]. Besides, the “glycan array binding signal (z-score)” value in [13] was 2.45; in assay [14] it was 3.42; in assay [15] it was 1.87; in [16] it was 2.24; in [17], 3.46; in [18] it was 1.44. The “glycan array binding signal (z-score)” value in assay [19] is 0.944; in assay [20], 1.04; in [21], 0.926; in assay [22] it was -0.189; in assay [23] it was 0.152.
